Assay results: the supplement of paper PMC11417369
± gives the standard deviation of the averaged measurements. The list shows a part of the results.

Each sequence was assayed on PfAP2-EXP AP2 domain (GST-tagged) (assay: gcPBM binding intensity (ln(normalized median fluorescence intensity)); higher = stronger DNA binding).
How it was run: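 Binding of GST-tagged P. falciparum DNA-binding domains, expressed in E. coli and used at about 25 μg on average, was carried out for 1 h in 1× PBS containing 1% milk, 0.2 mg/ml BSA, 0.5% salmon testes DNA and 0.03% Triton X-100. The target was an Agilent 4 × 180k array of primer-extended double-stranded 36-bp intergenic genomic probes plus negative controls, read with Alexa488 anti-GST antibody at 488 nm. Binding intensity is the highest Masliner-normalised natural-log median intensity across replicate spots of either probe orientation.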
For “TTGTATATATTAAATTGTACTTATTTTTTGTATATA [XGTACX_site3251]”, the “gcPBM binding intensity (ln)” value was 8.29 ± 0.28. In the case of “TATAAATAAATGCGTACACACTAATAAAAAAAAAAA [CACACA_site4630]”, the “gcPBM binding intensity (ln)” value is reported as 8.52 ± 0.44. With “ATAAAAATAAAAAGATGTACGTATTTTTTTTTTTTT [XGTACX_site5329]” the “gcPBM binding intensity (ln)” value was 8.54 ± 0.071. For “GAAATAGAGAAACACACACACATATATTTATGTATT [CACACA_site3967]”, the “gcPBM binding intensity (ln)” value was 8.4 ± 0.43. “CATTATTATGATAGTTGTACAATTTTTATAAAAAAT [XGTACX_site4411]” was tested, and the “gcPBM binding intensity (ln)” value was 8.62 ± 0.35. With “TGGAAAAATAGGCACACACACATATATACCTATATA [CACACA_site4843]” the “gcPBM binding intensity (ln)” value was 8.39 ± 0.31. With “TTTTTTTTTTTTGAGTGTACTAAAATATTACCTTTT [XGTACX_site646]” the “gcPBM binding intensity (ln)” value was 8.37 ± 0.5. With “TGAATATTTACTTTAGCACACAATTTGTATTTGATT [CACACA_site960]” the “gcPBM binding intensity (ln)” value was 8.59 ± 0.44. “AATATTATAAATGATACACACTTAAAATACACCCAC [CACACA_site5498]” was tested, and the “gcPBM binding intensity (ln)” value was 9.12 ± 0.46. With “AATATATTTTAATACACACACACATATATATATATA [CACACA_site5969]” the “gcPBM binding intensity (ln)” value was 10.3 ± 0.34. For “ATATGTATATAAATGTGTACTTATAAATATATATAT [XGTACX_site3250]”, the “gcPBM binding intensity (ln)” value was 9.25 ± 0.028. In the case of “TTTTTTTTAAATATCACACACATATAACATATTCTA [CACACA_site7687]”, the “gcPBM binding intensity (ln)” value is reported as 8.33 ± 0.4. “ATTTTTCATATATATATATTAATATATATATATTAA [CACACA_negctrl_site1681]” was tested, and the “gcPBM binding intensity (ln)” value was 8.65 ± 0.11. For “GTATTTTTAAATGACACACACATATATATATATATA [CACACA_site1662]”, the “gcPBM binding intensity (ln)” value was 10.2 ± 0.5. In the case of “TTTGAACGAAAATACTCACACATATTTATAAACATT [CACACA_site5182]”, the “gcPBM binding intensity (ln)” value is reported as 8.34 ± 0.49. For “TGAATATTTATACATGCACACTAAAATAAAGAATCT [CACACA_site5351]”, the “gcPBM binding intensity (ln)” value was 8.88 ± 0.18. With “AAAAATATATTATATGTACACACAAAATTAAGGGAT [CACACA_site8384]” the “gcPBM binding intensity (ln)” value was 9.04 ± 0.35. For “AAAATTTCTTTTTTTTGTACATATATAATAATATAT [XGTACX_site7107]”, the “gcPBM binding intensity (ln)” value was 8.38 ± 0.29. In the case of “CAGTTAATGTTGGTACTTTATATAAAAATGATATGA [CACACA_negctrl_site1600]”, the “gcPBM binding intensity (ln)” value is reported as 8.52 ± 0.35. In the case of “ATAACAACATTTGATAAACACACAGAAGTATAAATA [CACACA_site8739]”, the “gcPBM binding intensity (ln)” value is reported as 8.8 ± 0.24. “TCTTTCTCTCTTCAAAGTACATATAATATATACTTC [XGTACX_site7982]” was tested, and the “gcPBM binding intensity (ln)” value was 8.72 ± 0.24. For “TTATTAATATTGCATGCACACTATATAATAATTGAA [CACACA_site8258]”, the “gcPBM binding intensity (ln)” value was 10.11 ± 0.057. “AAAATATAGTTATCAATATATAATATTTTTTTTTTA [CACACA_negctrl_site459]” was tested, and the “gcPBM binding intensity (ln)” value was 7.88 ± 0.46. With “TATAAATAGGCATATACACACTTTTAATATTCATAA [CACACA_site6123]” the “gcPBM binding intensity (ln)” value was 8.38 ± 0.44. For “TTTTTTTTTTTTTGTGTGCACCTTATTTTTTTGTAT [GTGCAC_site9617]”, the “gcPBM binding intensity (ln)” value was 9.24 ± 0.4. In the case of “CAAACACCCAAACACACACACACATACATACATACA [CACACA_site8044]”, the “gcPBM binding intensity (ln)” value is reported as 9.36 ± 0.34. For “CTATTGTTAAATATAATACACACGTTTTTAAAAATA [CACACA_site2183]”, the “gcPBM binding intensity (ln)” value was 8.39 ± 0.47. “ATAGTAATGCATAAATATATATTATATATATATATA [XGTACX_negctrl_site576]” was tested, and the “gcPBM binding intensity (ln)” value was 9.76 ± 0.24. “GTATATATTTTGTATTCATTTGTCACATATAATAGA [CACACA_negctrl_site506]” was tested, and the “gcPBM binding intensity (ln)” value was 8.69 ± 0.5. “TATAAAATGACTATATATAATATTAAAAAAAAAAAA [TGCATGCA_negctrl_site387]” was tested, and the “gcPBM binding intensity (ln)” value was 8.23 ± 0.52. With “ATTATATATACATAATGTACATATATATATTACCTT [XGTACX_site7624]” the “gcPBM binding intensity (ln)” value was 8.4 ± 0.35. With “TAAATTAAGAATTTTACACACATTAAATAAAAAAAA [CACACA_site3638]” the “gcPBM binding intensity (ln)” value was 8.24 ± 0.41. In the case of “AAAAAAAAAAAAAATTCACACACATATAAAAAATTA [CACACA_site8140]”, the “gcPBM binding intensity (ln)” value is reported as 8.31 ± 0.47. For “AAATTAGGAAATTGCACACAAAAAAAAACATATTAT [CACACA_site4074]”, the “gcPBM binding intensity (ln)” value was 8.61 ± 0.45. In the case of “TTTTTTTATTTTTTTATAAATGTATTTCTATTATTT [CACACA_negctrl_site1562]”, the “gcPBM binding intensity (ln)” value is reported as 8.19 ± 0.43. “TAAAAAATAAATATATGTACGCAATAAATGTGTTAA [XGTACX_site4043]” was tested, and the “gcPBM binding intensity (ln)” value was 8.47 ± 0.22. With “ACACATATGCATATATGTACATAATATATTAAACTT [XGTACX_site5975]” the “gcPBM binding intensity (ln)” value was 8.74 ± 0.46. “AAAAAAAAAAGACACACACACACACTAATACATACA [CACACA_site6473]” was tested, and the “gcPBM binding intensity (ln)” value was 8.62 ± 0.54. “ATGTTTTACAAAAACACACAAATGAATATAAACATA [CACACA_site6667]” was tested, and the “gcPBM binding intensity (ln)” value was 8.68 ± 0.41. For ATACCTATTTGATGAGTGCATTATCCAATATATGTA, the “gcPBM binding intensity (ln)” value was 8.85 ± 0.3. “AAAAGTGATGAGACAAGTACTAACATATTATTATTA [XGTACX_site1533]” was tested, and the “gcPBM binding intensity (ln)” value was 8.39 ± 0.38. “TTTTCTGTATAAACTTGTACATATATTTCCTTGTTT [XGTACX_site5745]” was tested, and the “gcPBM binding intensity (ln)” value was 8.69 ± 0.32. In the case of “AAATATATATGTATATGTACTTATTTATTTAAAAGG [XGTACX_site4093]”, the “gcPBM binding intensity (ln)” value is reported as 8.03 ± 0.39. In the case of “TTTATTATATATAAAAGTACACATTGTAAGGAAACA [XGTACX_site8560]”, the “gcPBM binding intensity (ln)” value is reported as 8.88 ± 0.24. In the case of “ATATGTTCTACAAAAAAGATGTCGATTTATTTTCTT [CACACA_negctrl_site1179]”, the “gcPBM binding intensity (ln)” value is reported as 8.39 ± 0.54. With “AAATAAAATATCAATTAAAACAGAATTGAATTTTTA [CACACA_negctrl_site181]” the “gcPBM binding intensity (ln)” value was 8.25 ± 0.41. In the case of “AACATGTTAAAATAAACACACAGCTAAGGTTTTTTT [CACACA_site157]”, the “gcPBM binding intensity (ln)” value is reported as 8.43 ± 0.42. In the case of “AAAAAAAAAAAAAAATGTACAAATAGTAGTTACAGA [XGTACX_site2531]”, the “gcPBM binding intensity (ln)” value is reported as 8.6 ± 0.45. With “GCAAATGTGAAAACGTGTACACATTTTATTTAATTT [XGTACX_site8000]” the “gcPBM binding intensity (ln)” value was 8.52 ± 0.24. With “ATTTAAGATTTAATCACACACATATATATTATATAC [CACACA_site2907]” the “gcPBM binding intensity (ln)” value was 8.38 ± 0.44. For “ATAATATATGTATATCCACACACATATATATATATA [CACACA_site8471]”, the “gcPBM binding intensity (ln)” value was 10.2 ± 0.38. In the case of “AAATGTAGATATTATCGTACACATATATTTATATAT [XGTACX_site6326]”, the “gcPBM binding intensity (ln)” value is reported as 8.4 ± 0.23. With “TATTTGTAAATCGATACACACATATATATTAATATA [CACACA_site196]” the “gcPBM binding intensity (ln)” value was 8.56 ± 0.64. With “AAAACATACCTATATACACACATATAAATATAAATA [CACACA_site6956]” the “gcPBM binding intensity (ln)” value was 8.54 ± 0.35. For “TTTGATATAGAAAGAGCATGCAAGTTAGATAAAATA [TGCATGCA_site470]”, the “gcPBM binding intensity (ln)” value was 9.66 ± 0.36. For “AATAAATTATTATGTACACACATAATAGTATATATA [CACACA_site1820]”, the “gcPBM binding intensity (ln)” value was 8.35 ± 0.28.
